The text below walks through data of PubChem BioAssay AID1745853 (National Center for Advancing Translational Sciences (NCATS), 2022).

Some of the results follow. These are further read-outs of the screen, such as a control signal, another cell line or another target. No call is given for them.

What all share (test): Primary Screen for Target Class Profiling of Small Molecule Inhibitors of Methyltransferases
Assay [1] concerns the target Glycine N-methyltransferase (Homo sapiens) (UniProt Q14749). The conditions noted are these: purified enzyme, MTase-Glo SAH luminescence; measured here: GNMT inhibition; at 40 µM; stronger effect = lower value. The procedure, abridged:
(§1)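 Each enzyme was assayed with SAM and its substrate. SAH formation detected by MTase-Glo luminescence; single-point 40 uM screen[…].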

In assay [2] the target is Guanidinoacetate N-methyltransferase (Homo sapiens) (UniProt Q14353). The conditions noted are these: purified enzyme, MTase-Glo SAH luminescence; measured here: GAMT inhibition; at 40 µM; stronger effect = lower value. The procedure, abridged: as §1
The target of assay [3] is Histamine N-methyltransferase (Homo sapiens) (UniProt P50135). The conditions noted are these: purified enzyme, MTase-Glo SAH luminescence; measured here: HNMT inhibition; at 40 µM; stronger effect = lower value. The method in brief: as §1
Assay [4] addresses Nicotinamide N-methyltransferase (Homo sapiens) (UniProt P40261). The conditions noted are these: purified enzyme, MTase-Glo SAH luminescence; measured here: NNMT inhibition; at 40 µM; stronger effect = lower value. The procedure, abridged: as §1
The target in assay [5] is Phenylethanolamine N-methyltransferase (Homo sapiens) (UniProt P11086). The conditions noted are these: purified enzyme, MTase-Glo SAH luminescence; measured here: PNMT inhibition; at 40 µM; stronger effect = lower value. The method in brief:
as §1
% is scaled to controls: 0 for no effect and ±100 for the full control effect.

With `CCCn1c(=O)c2cc(Cl)ccc2n2c(SCC(=O)Nc3ccc(C)cc3)nnc12`, the activity change, negative = inhibition was -4.92% in assay [1]; -10.3% in assay [2]; 6.59% in assay [3]; -7% in assay [4]; -2.55% in assay [5].
In the case of `CCC(C)NC(=O)Cn1nc2n(Cc3ccccc3)c(=O)c3ccc(C(=O)NCC(C)C)cc3n2c1=O` (stereo not given), the activity change, negative = inhibition stood at 4.57% in assay [1]; 1.16% in assay [2]; 10.2% in assay [3]; 2.05% in assay [4]; 2.61% in assay [5].
As for `Cc1cnc(CC2CCN(S(=O)(=O)c3cn(C)cn3)C2)n1Cc1ccccc1` (stereo not given), the activity change, negative = inhibition in assay [1] was -0.356%; in assay [2], 0.606%; in assay [3], -5.35%; in assay [4], -5.86%; in assay [5], -1.68%.
For the molecule `Nc1ncnc2c1c(-c1cnc3[nH]ccc3c1)nn2C1CCCC1`, the activity change, negative = inhibition in assay [1] is -3.91%; in assay [2] it was -17%; in assay [3], -5.04%; in assay [4] it was -77.2%; in assay [5], -88.6%.
The corresponding values for `Cc1ccc(Cn2c(=O)c3ccccc3n3c(SCC(=O)Nc4cccc(F)c4)nnc23)cc1` are -0.248%, 0%, 9.16%, 2.05% and 4.81%.
The corresponding values for `Cc1ccccc1N1C(=O)c2cc3occc3n2CC1(C)C(=O)NC1CCCCC1` (stereo not given) are -0.538%, 1.89%, 0.93%, 3.98% and -2.04%.
Taken in the same sequence, the figures for `NC(=O)COc1cccc(CN2CCN(c3ccc(F)cc3F)CC2)c1` were -2.77%, 1.65%, -0.941%, -2.19% and -5.2%.
Regarding `Cc1[nH]c2ccccc2c1C(=O)Cn1nc2n(Cc3ccccc3)c(=O)c3ccccc3n2c1=O`, the activity change, negative = inhibition in assay [1] was 1.87%; in assay [2], 4.65%; in assay [3] it was 6.46%; in assay [4], -0.95%; in assay [5], 1.23%.
As to `COc1cccc(C(=O)N2CCN(C(=O)COc3cccc(C)c3)CC2)c1OC`, the activity change, negative = inhibition is -5.76% in assay [1]; -14.7% in assay [2]; -5.25% in assay [3]; -22.4% in assay [4]; -19.6% in assay [5].
Taken in the same sequence, the figures for `Cc1ccc2c(cnn2C(=O)CCCC(=O)N2CCN(c3ccccc3)CC2)c1` were 0.602%, 1.38%, 4.93%, 2.74% and 2.43%.
The corresponding values for `CCOCCCN1C(=O)c2c(NC(C)=O)c3cc(F)ccc3n2CC1(C)C(=O)NCCC(C)C` (stereo not given) are 3.6%, 0.331%, 8.94%, 5.93% and 5.09%.
Consider `C/C=C/c1ccc2c(c1)[C@@H](C)[C@H](c1ccc(O)cc1)O2`, for which the activity change, negative = inhibition in assay [1] is 0%; in assay [2] it was 5.83%; in assay [3] it was 3.55%; in assay [4], -66%; in assay [5] it was 4.17%.
As for `C/C=C(/COC(=O)/C(C)=C/C)C(=O)OC(CC)c1ccc(OC)c(OC)c1` (stereo not given), the activity change, negative = inhibition in assay [1] is -8.49%; in assay [2], 5.45%; in assay [3], 7.74%; in assay [4] it was -12.7%; in assay [5] it was -0.126%.
Taken in the same sequence, the figures for `CC(=O)N1CCC([C@@H]2CN(Cc3ccc(C)s3)C[C@H]2CO)CC1` were -1.36%, -2.85%, -3.24%, -4.3% and 0.366%.
The corresponding values for `Cc1cccc(NC(=O)Cn2nc3n(C)c(=O)c4ccc(C(=O)NC5CCCCC5)cc4n3c2=O)c1` are 2.86%, 2.22%, 6.46%, -1.54% and 1.42%.
Taken in the same sequence, the figures for `CCOC(=O)c1ccc2c(c1)[C@@H]1C=CC[C@@H]1[C@H](c1ccc(C(=O)OC)cc1)N2` were -10.9%, -7.57%, -8.34%, -22.5% and -9.57%.
On to `COc1cccc(C2c3cccn3-c3sc4c(c3CN2C(=O)Nc2cc(F)ccc2F)CCCC4)c1` (stereo not given), for which the activity change, negative = inhibition in assay [1] is 1.52%; in assay [2], 0%; in assay [3] it was -3.07%; in assay [4], -1.73%; in assay [5] it was 4.46%.
Regarding `C=Cc1cc2oc(-c3ccc(O)c(F)c3)nc2cc1O`, the activity change, negative = inhibition in assay [1] is -73.9%; in assay [2], -36%; in assay [3] it was -73%; in assay [4] it was -44%; in assay [5], -52.8%.
The corresponding values for `NS(=O)(=O)c1ccc(Nc2nc(OCC3CCCCC3)c3[nH]cnc3n2)cc1` are -28.3%, 3.72%, -44.2%, -87.2% and -11.9%.
Taken in the same sequence, the figures for `CC(C)Cn1c(=O)c2ccc(C(=O)NC3CCCC3)cc2n2c(=O)[nH]nc12` were -14.5%, 4.48%, -6.49%, -8.55% and -12.7%.
Taken in the same sequence, the figures for `COc1ccc(-c2cc3n(n2)CC(C)(C(=O)NCc2ccccc2OC)N(c2ccc(C)c(C)c2)C3=O)cc1` (stereo not given) were 6.54%, 3.72%, 6.37%, 3.79% and -1.14%.
For the molecule `Cc1cnc(CN2CC3(CCCN(C(=O)c4ccc(C)s4)C3)CCC2=O)cn1` (stereo not given), the activity change, negative = inhibition in assay [1] is -5.63%; in assay [2], -6.17%; in assay [3], -3%; in assay [4] it was -13.1%; in assay [5], -17%.
`CN1C(=O)CCCCC1C(=O)NCC1CCCCC1` (stereo not given): the activity change, negative = inhibition is -0.118% in assay [1]; -1.07% in assay [2]; 2.9% in assay [3]; 0.268% in assay [4]; 1.24% in assay [5].
The corresponding values for `COc1ccc(-c2nc(C)nc3c2CCC3)c2ccc(C)nc12` are -4.03%, 0.307%, 2.56%, -1.54% and 13.3%.
Taken in the same sequence, the figures for `COCCNC(=O)C1CCC(=O)N1C1CCNCC1` (stereo not given) were -0.088%, 1.51%, 3.09%, -4.25% and 11.5%.
The corresponding values for `CCc1ccccc1NC(=O)N1CCn2c(C)ccc2C1CC` (stereo not given) are -1.07%, 0%, -5.51%, -6.63% and -2.75%.
Consider `O=C(CCc1nnc2n(Cc3ccccc3Cl)c(=O)c3ccccc3n12)NC1CCCCC1`, for which the activity change, negative = inhibition came out at 1.15% in assay [1]; 4.42% in assay [2]; 8.03% in assay [3]; 6.77% in assay [4]; 0.27% in assay [5].
As for `COc1ccc(NC(=O)N[C@H]2CO[C@H]3[C@@H]2OC[C@@H]3n2nnnc2-c2ccccc2)cc1`, the activity change, negative = inhibition in assay [1] was -5.86%; in assay [2] it was -3.1%; in assay [3], -1.8%; in assay [4], -6.66%; in assay [5], -0.946%.
Take `Cc1noc(C)c1CN1CCN(C(=O)C2CCCN2)CC1` (stereo not given): the activity change, negative = inhibition in assay [1] is -6.87%; in assay [2], -11.2%; in assay [3], -6%; in assay [4], -16.9%; in assay [5], -15.9%.
The corresponding values for `COC(=O)[C@H](Cc1cccc(C(=N)N)c1)[C@@H](C)NC(=O)c1ccc(-c2cc[n+]([O-])cc2)cc1` are 0.487%, 1.03%, -75.4%, -17.8% and 3.95%.
